Experimental data published in paper PMC12040169 (PLOS Biology, 2025).
The list shows a part of the results.

tested on: T1, C. trachomatis L2/434/Bu expressing GFP (CTL2-GFP); design: species or system HeLa; C. trachomatis total inclusion area by high-content imaging, normalised to DMSO; settings: total inclusion area; 28.5 h, 10 µM; inhibitor
T1 construct: L2/434/Bu GFP intracellular growth in HeLa cells
Method in brief: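 Imaging read-out: GFP inclusions and Hoechst nuclei captured by high-content imaging after fixation. Inclusion area/number = chlamydial growth; nuclei count = host cell viability. MIC calculated per earlier method.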

Point of comparison: `CCc1ccc(CNC(=O)Cn2cnc(-c3ccc(CN4CCC(C)CC4)cc3)c2)cc1` [CBK158710T], “% of control remaining” value 69.9351. Against it:
- COc1ccc(N2CCN(CC(=O)N3c4ccccc4Sc4ccccc43)CC2)cc1 [CBK269398] — higher, 96.4471
- NC(=O)c1cc([N+](=O)[O-])ccc1NCCN1C(=O)c2ccc(C(=O)O)cc2C1=O [CBK264444] — higher, 108.385
- Cn1c(=O)[nH]c(=O)c2c1nc(CN1CCOCC1)n2Cc1ccc(F)cc1 [CBK270040] — higher, 89.059
- CC(C)c1noc([C@@H]2C[C@H](NS(=O)(=O)c3ccc(F)cc3)CN2C)n1 [CBK288864] — higher, 103.252
- CC(C)(C)C1CCc2c(sc(NC(=O)CCC(=O)O)c2C(=O)Nc2ccccc2C(F)(F)F)C1 (stereo not shown) [CBK264143] — higher, 126.094
- CCN(CCc1nc2cc(OC)ccc2[nH]1)C(=O)c1ccc(=O)n(C)n1 [CBK307712] — higher, 95.2004
- Cc1c(CNCCN2CCN(C)CC2c2ccccc2)cnn1C (stereo not shown) [CBK304056] — lower, 50.9611
- O=C(OCc1ccccc1)N1CCC(C2OCc3cc(-c4ccc(C(=O)N5CCCC5)cc4)ccc3O2)CC1 (stereo not shown) [CBK153260] — lower, 31.9439
- Cc1ccc(Nc2cc(-c3cc4ccccc4o3)ncn2)cc1NS(C)(=O)=O [CBK091148] — lower, 53.8246
- Cc1nnc(N2CCn3nc(C(O)Cc4ccccc4)cc3C2)s1 (stereo not shown) [CBK307152] — higher, 82.0063
- Cc1cc(SCC2=NNC(=O)C2)c(Cl)cc1Cl [CBK067769] — higher, 95.3756
- Oc1ccc(SCCCCCN2CCCCC2)cc1 [CBK261488] — higher, 81.5406
- COc1ccccc1-c1nc(SCc2ccc(C(=O)O)cc2)n[nH]1 [CBK266631] — higher, 118.446
- CCN(CCO)C(=O)c1cccc(-c2cnn(C(F)F)c2C)c1 [CBK307519] — lower, 43.8718
- NC(=O)C1(Cc2ccccc2-c2cccc(F)c2)CCN(C(=O)c2cccc(F)c2)CC1 [CBK285693] — higher, 105.131
- Cc1cccc(CCNC(=O)CC2CCN(C(=O)CC3CCCCC3)CC2)c1 [CBK285964] — higher, 92.9354
- O=c1c(C(F)(F)F)cccn1Cc1ccccc1 [CBK023620] — higher, 109.136
- CCCOC1CCCN(C(=O)c2cncc(F)c2)C1 (stereo not shown) [CBK304623] — lower, 44.8683
- COc1ccc2oc(C(=O)NC(C)c3cn(C)nc3C)cc2c1 (stereo not shown) [CBK281573] — higher, 92.9862
- O=C(c1ccc2c(c1)C(=O)N(N1C(=O)c3ccccc3C1=O)C2=O)c1ccc2c(c1)C(=O)N(N1C(=O)c3ccccc3C1=O)C2=O [CBK261182] — higher, 93.0895
- COCCN(C)c1nc2c(c(=O)[nH]1)Cc1ccccc1OC2 [CBK306737] — lower, 40.4172
- COc1cc(-c2nc(NC(=O)C(C)C)cc3ccccc23)cc(OC)c1OC [CBK085741] — higher, 80.9292
- Cn1nc(C(C)(C)C)c2cc(C(=O)N3CCn4nccc43)cnc21 [CBK305466] — lower, 47.0737
- COc1ccc(C(=O)C(C)OC(=O)c2ccc3ccccc3n2)cc1 (stereo not shown) [CBK111937] — higher, 100.969
- O=C(NCCNC(=O)c1ccccn1)c1cccc(F)c1 [CBK269613] — higher, 101.056
- CNC(=O)C1(Cc2ccccc2-c2cccs2)CCN(C(=O)c2cccc(OC)c2)CC1 [CBK285907] — higher, 109.921
- CCSc1nc(N)c(NC(=O)c2ccco2)c(=O)[nH]1 [CBK287613] — higher, 83.8281
- Cc1ccccc1C(=O)N1CCN(Cc2cc(=O)n3ccsc3n2)CC1 [CBK304595] — lower, 59.1333
- Cc1ccc(N(CC(O)CNC23CC4CC(CC(C4)C2)C3)S(=O)(=O)c2ccccc2)cc1 (stereo not shown) [CBK264741] — higher, 88.4188
- O=C(CC(CN1CCN(Cc2ccccn2)CC1)C(=O)O)Nc1ccc(F)cc1 (stereo not shown) [CBK286800] — higher, 94.0922
- NC(=O)CC1C=CS(=O)(=O)C1 (stereo not shown) [CBK019653] — lower, 62.9674
- O=c1[nH]ccn2nc(-c3ccc4c(c3)OCO4)cc12 [CBK288048] — higher, 87.106
- Cc1ccc(-c2cc(C(=O)N3CCN(C4CCS(=O)(=O)C4)CC3)c3ccccc3n2)cc1 (stereo not shown) [CBK297153] — higher, 72.9573
- COc1ccc(S(=O)(=O)N2CCN(C(=O)c3ccco3)CC2)c2ccccc12 [CBK269839] — higher, 100.11
- COc1nnc(-c2ccc(N3CCOCC3)c(NC(=O)COc3ccc(C)cc3)c2)c2ccccc12 [CBK266103] — higher, 124.182
- CCn1nc(C)c(NC(=O)CN(C)Cc2ccccc2C(F)(F)F)c1C [CBK306771] — higher, 72.1934
- O=C(CNS(=O)(=O)c1ccc(Br)cc1)NCc1cccnc1 [CBK266295] — higher, 124.444
- Fc1cccc(-c2nc3c(s2)CN(C2CCOCC2)CC3)c1 [CBK281647] — higher, 93.2402
- O=C(CCCC1CC1)N1CCn2c(nnc2-c2cncc(Br)c2)C1 [CBK304767] — higher, 107.285
- CC(=O)OCc1c(C)cc(C)c(CN(C)C(C)c2ccon2)c1C (stereo not shown) [CBK306780] — lower, 44.901
- CCc1noc(C)c1C(=O)Nc1cc(S(=O)(=O)N2CCCCC2)ccc1N(C)C [CBK295328] — higher, 99.7415
- O=C(CSc1nnc(-c2ccco2)c(-c2ccco2)n1)Nc1ccccc1[N+](=O)[O-] [CBK265762] — higher, 138.915
- O=C(O)Cc1sc(-c2ccc3c(c2)OCO3)nc1-c1ccccc1 [CBK200114] — higher, 94.0993
- c1ccc(-c2nc3cc4ccccc4cc3[nH]2)nc1 [CBK000130] — lower, 5.749
- CCOC(=O)Cn1c(C)nc2ccccc21 [CBK115311] — higher, 85.3904
- COc1ccc2nc(NCc3ccccc3)sc2c1 [CBK287485] — lower, 18.2337
- O=C1NCCN1CCOc1nccnc1-c1cnn(Cc2ccccc2)c1 [CBK107094] — higher, 83.2579
- CC1(C)C(=O)Nc2ccccc2N1C(=O)COc1ncnc2sc3c(c12)CCC3 [CBK297530] — higher, 97.0409
- Cc1ccc(CNCc2cc3c(C)nn(-c4ccccc4)c3[nH]c2=O)o1 [CBK282896] — higher, 104.734
- Cc1ccccc1CNC(=O)CCc1c(C)nc2nc(N)nn2c1C [CBK304987] — higher, 77.3424
- Cc1nc2cccnc2n1C1CCN(C(=O)C(C)(C)C)CC1 [CBK282426] — higher, 117.782
- CC(C)NC(=O)Nc1ccc(C(=O)N(CCC#N)C(C)C2CC2)cc1 (stereo not shown) [CBK305312] — higher, 88.1504
- O=C(Nc1nc2ccccc2[nH]1)c1ccc(N2CCCS2(=O)=O)cc1 [CBK304582] — lower, 36.9967
- COc1ccc(N2CC(C(=O)Nc3ccc(C(=O)O)cc3)CC2=O)cc1 (stereo not shown) [CBK268782] — higher, 110.821
- CC(C)C(=O)Nc1cc2cccnc2nc1-c1ccsc1 [CBK073649] — higher, 99.8352
- COc1ccc(C[C@@H]2NC(=O)[C@H]3CN(C(=O)Nc4cccc(OC)c4)CCN3C2=O)cc1 [CBK289617] — higher, 89.2822
- Cc1cc2cn([C@H]3C[C@@H](O)[C@@H](CO)O3)c(=O)nc2[nH]1 [CBK201302] — higher, 97.8385
- O=C(Cn1ncc2ccccc2c1=O)N1CCC(c2ccccc2)C1 (stereo not shown) [CBK281843] — higher, 73.659
- COc1ccnc(N2CCc3c(ncn3C3CC3)C2)n1 [CBK304816] — higher, 71.0797
- CCOc1ccc2ccccc2c1CNCc1cccnc1 [CBK269934C] — higher, 82.97
- Cc1noc(C)c1S(=O)(=O)Nc1ccnn1C [CBK062073] — higher, 79.0724
- COc1ccc(/C=C/C(=O)O)cc1S(=O)(=O)N1CCCCCC1 [CBK263565] — higher, 116.174
- O=C(CN1CCN(c2nc3cc(Cl)ccc3s2)CC1)c1ccc2c(c1)OCCCO2 [CBK074737] — higher, 94.3763
- Cc1n[nH]c(C)c1CNC(=O)c1cc2ccc(F)cc2[nH]1 [CBK283147] — higher, 102.661
- O=C(Cc1ccccc1)Nc1ccccc1C(=O)NCc1cccnc1 [CBK269228] — higher, 90.9237
- CSc1cccc(NC(=O)NCCN2CCNC2=O)c1 [CBK057191] — lower, 56.397
- Cc1nc(CCN2CCN(c3ccc4nccn4n3)CC2)cs1 [CBK306932] — lower, 53.9789
- COc1ccccc1/C=N/NC(=O)C(=O)NCc1ccccn1 [CBK262286] — higher, 93.9447
- Nc1ncn(Cc2ccccc2)c2nc(SCC(=O)O)nc1-2 [CBK267027] — higher, 123.961
- Cc1cc(C(=O)N2C[C@H]3CC[C@](O)(c4ccc(F)cc4)[C@H]3C2)on1 [CBK284354] — higher, 89.3025
- COc1cc(C(=O)NCCN2CCCC2)ccc1Nc1cncc(-c2ccc(O)cc2)n1 [CBK122661] — higher, 85.7127
- CCOc1ccccc1CNc1ccc(C2c3ccsc3CCN2C(=O)COC)cc1 (stereo not shown) [CBK286461] — higher, 114.385
- Cc1cc(C2CCCCCN2S(=O)(=O)c2ccc(F)cc2)on1 (stereo not shown) [CBK284668] — higher, 76.5595
- O=C(Nc1ccc(N2CCN(C(=O)c3ccco3)CC2)cc1)c1cc([N+](=O)[O-])ccc1N1CCOCC1 [CBK269052] — higher, 103.2
- CCOC(=O)c1cc(Cl)cnc1C1CCN(C(=O)C2CC2)CC1 [CBK284810] — higher, 103.172
- Cc1cnn(C2CCCN(C(=O)CCCc3cccs3)C2)c1 (stereo not shown) [CBK304168] — lower, 33.6851
- COCc1cn([C@H]2CO[C@H]3[C@@H]2OC[C@H]3OC)nn1 [CBK289490] — higher, 117.783
- COC(=O)c1c(NC(=O)C(C)Oc2cc(C)c(Cl)c(C)c2)sc(C(C)=O)c1C (stereo not shown) [CBK265678] — higher, 89.7215
